# Test results from PubChem BioAssay AID1508624 (National Center for Advancing Translational Sciences (NCATS), 2021).
# In all, about 48,000 compounds went through this assay and about 120 (0.25%) were called active. Inconclusive results (about 4%) are left out. The call rests on the fitted dose curve; in most records, active means well fitted activation curve with a large enough effect; inconclusive means small, poorly fitted or top-dose-only effect, or another doubt; inactive means no such curve, though single readings can be large or run the other way. The list shows a part of the results.
# Assay: Primary qHTS for Identification of Small Molecule Activators of Huntingtin-Antisense Promoter Activity; further: nearly all actives have a fitted effect of over 55% in size
# Conditions: HEK293 HTT-AS promoter firefly luciferase reporter, 24 h; series mostly up to 57.5 µM; activity change, positive = activation: at the top concentration
# Outline: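 Quantitative HTS used concentration series of up to 57.5 uM final on HEK293 luciferase reporter cells, 24 h at 37 degrees C. Readout was Dual-Glo firefly luminescence.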
row,SMILES,"activity change, positive = activation"
1,Cc1cc(NC(=O)CN2C(=O)C(C)(C)c3ccccc32)ccc1Br,inactive: -14.6%
2,Cc1ccc(CNC(=O)CC2Oc3ccccc3NC2=O)cc1 (stereo not drawn),inactive: -0.208%
3,CCN(C(=O)CSc1nc2ccccc2n1CC(=O)Nc1cccc(C#N)c1)c1ccccc1,inactive: -44.5%
4,CCOC(=O)C1CCCN(C(=O)Cn2ncc3c([nH]c4ccccc43)c2=O)C1 (stereo not drawn),inactive: -15.1%
5,COc1ccc(C(CC(=O)Nc2ccc(F)c(Cl)c2)N2Cc3ccccc3C2=O)cc1OC (stereo not drawn),inactive: -28.8%
6,CC1CCN(S(=O)(=O)c2ccc3c(c2)N(CC(=O)NCc2ccccc2)C(=O)CO3)CC1,inactive: -29.8%
7,COC(=O)c1ccc(Cl)cc1NC(=O)N1CC=C(c2c[nH]c3ccccc23)CC1,inactive: -14.8%
8,CC[C@H]1OC(=O)[C@H](C)[C@@H](O[C@H]2C[C@@](C)(OC)[C@@H](O)[C@H](C)O2)[C@H](C)[C@@H](O[C@@H]2O[C@H](C)C[C@H](N(C)C)[C@@H]2O)[C@](C)(O)C[C@@H](C)CN(C)[C@H](C)[C@@H](O)[C@]1(C)O,inactive: -7.83%
9,COc1ccc(N2CCN(C(=O)c3cc4c(-c5ccccc5F)nn(C)c4s3)CC2)cc1,inactive: -34%
10,COc1ccc(OC)c(NC2=C(c3ccccc3)C(=O)c3ccccc32)c1,inactive: -34.9%
11,O=C(Cn1ncc2c(=O)oc3ccccc3c21)Nc1cc(F)ccc1F,inactive: -16.6%
12,O=C(CSc1nc2nccnc2c(=O)n1CCc1c[nH]c2ccccc12)Nc1ccccc1F,inactive: -21.9%
13,Oc1ccccc1Nc1nc(-c2ccccc2)c2cc(Cl)ccc2n1,inactive: -14.9%
14,Cc1cccc(OCCCC(=O)Nc2sc3c(c2C(N)=O)CCC(C)C3)c1 (stereo not drawn),inactive: -7.09%
15,CCN(CC)c1nc(-c2ccc(C(C)(C)C)cc2)nc2ccccc12,"inactive: -10% [at 11.5 µM, percent change from vehicle, -100% = no light]"
16,COc1ccc2c(CNCC(C)c3ccccc3)c(C(=O)O)n(Cc3ccc(F)cc3Cl)c2c1 (stereo not drawn),inactive: -13.3%
17,COc1ccc(/C=C(\C#N)c2nc(-c3cc(Cl)ccc3OC)cs2)cc1,inactive: -10%
18,O=C1CS(=O)(=O)C2(C(=O)N(Cc3cccc(F)c3)c3ccccc32)N1c1ccccc1 (stereo not drawn),inactive: -34.2%
19,CCOc1ccccc1-n1ccnc(NCc2ccc(F)cc2)c1=O,inactive: -13.7%
20,Cc1cccc(NC(=O)Nc2nnc(N(C)C3CCCCC3)s2)c1C,inactive: -3.47%
21,O=S(=O)(NCCNCC=Cc1ccc(Br)cc1)c1cccc2cnccc12,inactive: -27.9%
22,Cc1nn(CC(=O)NCc2ccco2)c(=O)c2cc3ccccc3n12,inactive: -4.38%
23,CCc1ccccc1N(C)C(=O)c1cn(CC(C)C)c(=O)c2cc(OC)c(OC)cc12,inactive: -25.5%
24,O=C(CCC(=O)N1Cc2ccccc2Oc2ncccc21)Nc1ccc(Cl)cc1,inactive: -33.1%

row,SMILES,"activity change, positive = activation"
1,CN(C)CCNC(=O)C1CCN(c2nc3ccccc3[nH]2)CC1,inactive: -4.3%
2,COc1ccc(NC(=O)Nc2nnc(N3CCCCCC3)s2)cc1,inactive: 4.8%
3,Cc1ccc(NC(=O)c2nc(S(C)(=O)=O)ncc2N(Cc2ccccc2)Cc2ccco2)c(C)c1,inactive: -10.7%
4,Cc1c(NC(=O)c2cc([N+](=O)[O-])ccc2N2CCOCC2)cccc1-c1nc2ccccc2o1,inactive: -20%
5,Cc1nn(-c2ccc(F)cc2)c(-n2cccc2)c1C(=O)N1CCN(c2ccc(F)cc2)CC1,inactive: -34.2%
6,CNC[C@H](O)c1cccc(O)c1,inactive
7,COc1ccc(NC(=O)c2nnn(Cc3ccccc3C)c2N)c(OC)c1,inactive: -5.86%
8,Cc1ccc(C(=O)Nc2c(-c3ccccc3)nc3ccccn23)cc1C,inactive: -14%
9,Cc1ccc(CNC(=O)Cn2c3ncccc3c(=O)n2-c2ccccc2)cc1,inactive: -22.1%
10,O=C(CSc1ccc(-c2ccccn2)nn1)Nc1ccc(F)c(F)c1,inactive: -20%
11,COc1cc(OC)c(NC(=O)c2c(C)oc3ncn(C)c(=O)c23)cc1Cl,inactive: -5.06%
12,CCOc1ccc(CCNC(=O)CCc2c(C)nc3c(c(C)nn3-c3ccccc3)c2C)cc1OCC,inactive: -36.1%
13,CCOc1ccc(NC(=O)c2ccc(NC(=O)CCS(=O)(=O)c3cccs3)cc2)cc1,inactive: -21.6%
14,Cc1ccc(C2CC(=O)N(Cc3ccccc3F)c3c2c(C)nn3-c2nc(C)cc(C)n2)cc1 (stereo not drawn),inactive: -13.9%
15,C[C@]12CCC(=O)C=C1CC[C@H]1[C@@H]3CC[C@](O)(C(=O)CO)[C@@]3(C)C[C@H](O)[C@@]12F,inactive: -11.1%
16,CCn1cc(C(=O)N2CCN(c3cccc(Cl)c3)CC2)c(=O)c2cc(S(=O)(=O)N3CCOCC3)ccc21,inactive: -10.4%
17,Cc1ccc(Cc2nc3ccccc3nc2SCC(=O)N2CCc3ccccc32)cc1,inactive: -3.59%
18,CCOc1ccccc1NC(=O)c1ccc2oc(=O)c(S(=O)(=O)c3ccc(F)cc3)cc2c1,inactive: -72.5%
19,CN(C(=O)CSc1nc2ccc(NC(=O)c3ccc(F)cc3)cc2s1)c1ccccc1,inactive: -53.9%
20,COc1ccc(NC(=O)CCS(=O)(=O)c2cc(Br)cc3c2N(C(C)=O)CC3)c(OC)c1,inactive: -1.02%
21,CCOC(=O)Nc1ccc2c(c1)N(C(=O)CCN1CCOCC1)c1ccccc1S2,inactive: -26%
22,COc1ccc(-c2onc(C)c2C)cc1S(=O)(=O)NC1CCCCC1,inactive: -39.5%
23,Cc1cccc(N2CCN(C(=O)Cn3nc(C)c4sc5ccccc5c4c3=O)CC2C)c1 (stereo not drawn),inactive: 8.13%
24,O=C(Nc1cccc(C(=O)OCc2cc(=O)n3nc(C4CC4)sc3n2)c1)c1ccc(F)cc1,inactive: -4.48%

row,SMILES,"activity change, positive = activation"
1,CC(=O)c1ccc(S(=O)(=O)N2CCC(Oc3ccc(-n4cnnn4)cc3)CC2)cc1,inactive: -15.4%
2,O=C(Nc1cccc(Cl)c1)N1Cc2ccccc2Oc2ncccc21,inactive: -20.3%
3,CCc1ccc(NC(=O)CN2C(=O)C(=O)c3ccccc32)cc1,inactive: 11.5%
4,COc1ccc(S(=O)(=O)Nc2ccc(O)c(Sc3nc4ccccc4s3)c2)cc1,inactive: -18.8%
5,CCCC(=O)NC1CC(=O)N(c2ccc3c(c2)OCCO3)C1 (stereo not drawn),inactive: -4.5%
6,COc1ccccc1C1C(C(N)=O)=C(C)Nc2nc(SCc3ccccc3F)nn21 (stereo not drawn),inactive: -10.7%
7,Cc1c(C(=O)N(C)C)sc2c1c(=O)n(-c1ccc(Cl)c(Cl)c1)c(=O)n2Cc1ccc(F)cc1,inactive: -9.2%
8,Cc1ccc(-n2nc(C)c3c(C)c(CCC(=O)NCc4cccc(Cl)c4)c(C)nc32)cc1C,inactive: -27.1%
9,CCOCCCn1c(=N)c(S(=O)(=O)c2ccccc2)cc2c(=O)n3cc(C)ccc3nc21,inactive: 3.3%
10,CC(=O)c1cccc(NC(=O)c2ccc3c(c2)CCN3S(=O)(=O)c2ccccc2)c1,inactive: -11.8%
11,CCn1cc(S(=O)(=O)c2ccccc2)c(=O)c2cc(F)c(N3CCCCCC3)cc21,inactive: -22.9%
12,O=C(CSc1c2c(nc3ccc(Cl)cc13)CCCC2)N1CCCCC1,inactive: -16.4%
13,CCOc1ccc(CCNC(=O)c2cc3cc4ccc(OC)cc4nc3s2)cc1OCC,inactive: -8.7%
14,Cc1ccccc1OCC(=O)Nc1ccc(S(=O)(=O)Nc2ncccn2)cc1,inactive: 10.1%
15,COc1ccc(C(=O)Oc2c(Sc3ccc(C)cc3)c(C)nn2C(C)(C)C)c(OC)c1,inactive: -52.2%
16,Nc1c2c(nc3c1CCC3)CCCC2,inactive: -5.41%
17,COCCNC(=O)C(=O)Nc1ccc2nc3n(c(=O)c2c1)CCCCC3,inactive: -1.11%
18,C=Cc1ccc(Cn2c(C(=O)O)c(CNCc3cc(OC)ccc3OC)c3ccc(C)cc32)cc1,inactive: -24.6%
19,COc1ccc(CCNC(=O)C(C)n2nc(C)c3sc4ccccc4c3c2=O)cc1OC (stereo not drawn),inactive: -17.9%
20,CCOc1ccc(C2C(C(=O)Nc3ccc(C)cc3C)=C(C)Nc3c(C(=O)Nc4ccc(C)cc4)cnn32)cc1OC (stereo not drawn),inactive: 1.06%
21,CCC12CN3CC(C)(CN(C1)C3c1c(C)[nH]c3ccccc13)C2=O (stereo not drawn),inactive: 3.37%
22,O=C(O)c1ccc(Nc2ncc3c(n2)-c2ccc(Cl)cc2C(c2c(F)cccc2F)=NC3)cc1,inactive: -14.9%
23,COc1ccc(C2NC(=O)N(C)C3=C2C(=O)N(c2ccccc2)C3)cc1 (stereo not drawn),inactive: -23.3%
24,COc1ccc(-c2nc3c(C#N)c[nH]n3c2NC2CCCCC2)cc1,inactive: 44.4%

row,SMILES,"activity change, positive = activation"
1,COC(=O)C1=C(c2ccccc2)c2ccccc2S(=O)(=O)N1CC(=O)Nc1cc(C)ccc1C,inactive: -25%
2,Cc1ccc(CN2C(=O)C3(SCC(=O)N3c3ccc(C)c(C)c3)c3ccccc32)cc1 (stereo not drawn),inactive: -24.7%
3,CCOC(=O)Cn1nc(N2CCN(c3ccc(F)cc3)CC2)ccc1=O,inactive: -14.3%
4,CCOC(=O)c1cccc(NC(=O)CCc2c(C)nc3c4cccnc4nn3c2C)c1,inactive: -6.44%
5,Cc1cccc(N2CCN(c3c(CN4CCCC4)c(=O)oc4ccccc34)CC2)c1C,inactive: -13.1%
6,Cc1c(C(=O)N2CCOCC2)oc2c1-c1nn(CC(=O)NCc3ccccc3)cc1CC2,inactive: -18.3%
7,CSc1ccc(Nc2nn(-c3ccc(OC(F)(F)F)cc3)nc2C(C)=O)cc1,inactive: -6.21%
8,Cn1c(=O)n(C)c2cc(CNCc3ccc(C(=O)O)cc3)ccc21,inactive: -0.659%
9,C[C@H](NC(=O)Cc1cc(F)cc(F)c1)C(=O)N[C@@H]1C(=O)N(C)c2ccccc2-c2ccccc21,inactive: -16%
10,CCOCCn1ccc2c(OCC(=O)Nc3cc(C(F)(F)F)ccc3Cl)cccc2c1=O,inactive: -6.84%
11,Cc1ccc2c(c1)N(CC(=O)NCc1cccc(Cl)c1)C(=O)c1cccnc1O2,inactive: -5.97%
12,COc1ccccc1Cn1c(CNS(=O)(=O)c2c(C)cc(C)cc2C)nc2cccnc21,inactive: -27%
13,Cc1ccc(C)c(NC(=O)c2cc(S(=O)(=O)N3CCc4ccccc4C3)ccc2F)c1,inactive: 8.51%
14,COc1ccccc1CNC(=O)c1cc2sccc2n1Cc1ccc(F)cc1,inactive: -12.1%
15,COc1ccc(Br)cc1CNC(=O)CCCn1c(=O)c2cccn2c2cccnc21,inactive: -16.6%
16,CCCS(=O)(=O)c1c(S(=O)(=O)CCC)c2cc(C(C)(C)C)ccn2c1C(=O)c1ccc(OC)c(OC)c1,inactive: -21.4%
17,COc1ccc(C2C=C(c3ccc(C)cc3)Nc3c(C(=O)Nc4ccccc4)cnn32)cc1 (stereo not drawn),inactive: -91.3%
18,COc1ccc(-c2noc(-c3ccccc3OCC(=O)Nc3ccc(C(C)=O)cc3)n2)cc1,inactive: 8.54%
19,O=C(Cn1ncc2c3ccccc3n(Cc3ccccc3)c2c1=O)N1CCCCCC1,inactive: -0.365%
20,CN=C(NC#N)NCCSCc1nc[nH]c1C,inactive: -7.89%
21,CCc1cccc(NC(=O)Cn2c(C(=O)OC)cc3occc32)c1,inactive: 9.39%
